About 65 (0.1%) of roughly 45,000 compounds were called active. The call rests on the fitted dose curve; in most records, active means well fitted activation curve with a large enough effect; inconclusive means small, poorly fitted or top-dose-only effect; inactive means no such curve, though single readings can be large or run the other way. This is one part of the list.
molecular target: Galactocerebrosidase (Homo sapiens) (UniProt P54803); assay: A Novel Cell-Based Assay to Identify Small Molecules for B -Galactocerebrosidase; conditions: 145M-Twi-hGALC-G270D cells (Twitcher mouse brain line with human GALC G270D), HMU-beta-Gal fluorescence, 48 h; series mostly up to 57.5 µM; activation: at the top concentration; further: 0% is about no effect; nearly all actives have a fitted effect of over 65% in size
In short: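 Fluorescence readout: HMU-β-gal cleavage by mutant GALC (0.1 mM final, citrate/phosphate pH 5.2 with 1 mg/mL taurocholate), stopped with carbonate/bicarbonate plus Triton X-100. Cells: murine Twitcher 145M-Twi expressing human G270D GALC; qHTS for activators.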

UniProt P54803, sequence (P54803 whole entry, looked up): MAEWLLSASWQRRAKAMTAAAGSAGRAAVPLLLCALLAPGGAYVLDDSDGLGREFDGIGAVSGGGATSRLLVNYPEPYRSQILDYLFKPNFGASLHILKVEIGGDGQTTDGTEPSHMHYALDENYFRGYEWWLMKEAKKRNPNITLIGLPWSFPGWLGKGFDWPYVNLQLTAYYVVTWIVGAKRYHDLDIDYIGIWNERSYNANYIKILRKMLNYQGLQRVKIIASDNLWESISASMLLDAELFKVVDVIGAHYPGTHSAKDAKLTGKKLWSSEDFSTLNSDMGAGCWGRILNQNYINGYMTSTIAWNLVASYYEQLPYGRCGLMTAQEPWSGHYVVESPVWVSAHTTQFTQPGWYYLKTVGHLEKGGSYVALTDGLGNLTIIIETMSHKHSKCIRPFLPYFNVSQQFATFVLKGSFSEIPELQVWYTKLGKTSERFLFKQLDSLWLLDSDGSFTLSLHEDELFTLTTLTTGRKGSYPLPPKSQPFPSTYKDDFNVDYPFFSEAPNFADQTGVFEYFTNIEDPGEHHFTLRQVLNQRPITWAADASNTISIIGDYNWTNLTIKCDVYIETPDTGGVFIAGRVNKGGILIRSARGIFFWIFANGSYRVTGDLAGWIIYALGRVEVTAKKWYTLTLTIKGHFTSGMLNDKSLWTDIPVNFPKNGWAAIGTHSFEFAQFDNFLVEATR

| SMILES | activation |
| --- | --- |
| Cc1ccc2c(c1)c1c(c(=O)n(-c3cccc(Cl)c3)c(=O)n1CC(=O)Nc1c(C)cccc1C)n2C | inactive: -3.26% |
| CCOC(=O)c1ccccc1NC(=O)CSc1nc2cn(CC)nc2c(=O)n1Cc1ccc(Cl)cc1 | inactive: -6.56% |
| Cc1ccc(/C=C/c2onc(C)c2S(=O)(=O)N2CCC(C(=O)N3CCC(N(C)C(C)C)CC3)CC2)cc1 | inactive: -23.7% |
| Cc1ccc(-n2c(Cc3ccccc3)nnc2SCc2nc(-c3cccs3)no2)cc1 | inactive: -8.85% |
| O=c1c2cc3c(cc2n(Cc2ccc(Cl)cc2)c(=O)n1Cc1nc(-c2ccccc2)no1)OCO3 | inactive: 13.4% |
| Cc1nc(-n2nc(C)c(Cc3ccccc3Cl)c2C)sc1C(=O)Nc1ccccc1F | inactive: -16.9% |
| CN1C(=O)Cc2cc(S(=O)(=O)N3CCN(c4ccccc4F)CC3)ccc21 | inactive: -16.2% |
| O=C(Nc1cccc(Cl)c1)c1cnc2sc(N3CCCC3)nn2c1=O | inactive: -4.48% |
| COc1ccc(CNC(=O)Cc2c(C)c3cc4c(C)coc4c(C)c3oc2=O)cc1 | inactive: -11.5% |
| Cc1ccc(-c2noc(C(C)NS(=O)(=O)c3ccc(C)cc3)n2)cc1 (stereo unspecified) | inactive: 28% |
| Cc1ccc(C)c(CN2CCCN(Cc3ccc(F)cc3)S2(=O)=O)c1 | inactive: 5.93% |
| COc1ccccc1/C=C/c1nc2ccccc2n1C(C)C | inactive: -19.9% |
| COc1ccccc1NC(=O)C(=O)NCC(c1ccc2c(c1)OCO2)N1CCOCC1 (stereo unspecified) | inactive: -2.09% |
| CN1C(=O)CC[C@H]1c1cccnc1 | inactive: -13.3% |
| COc1ccc(Cl)cc1NC(=O)Cc1ccc(NC(=O)N2CCCCc3ccccc32)cc1 | inactive: -2.65% |
| CC(=O)c1ccc(S(=O)(=O)N2CCn3cccc3C2c2ccc(C)cc2)cc1 (stereo unspecified) | inactive: -6.48% |
| CCOC(=O)Cn1c(=O)n(CC2CCCO2)c2nc(-c3ccc(C)cc3)nc(C(N)=O)c21 (stereo unspecified) | inactive: 2.25% |
| Cc1ccc2nc3c(cc(C(=O)NCC4CCCO4)c(=N)n3C(C)C)c(=O)n2c1 (stereo unspecified) | inactive: -21.9% |
| CC(C)c1ccc(C2=CC(c3ccc(C(C)C)cc3)n3nnnc3N2)cc1 (stereo unspecified) | inactive: -12.1% |
| C/C(=N\O)[C@@H](C)NCC(C)(C)CN[C@H](C)/C(C)=N/O | inactive: -13.5% |
| CCn1c(C)c(C2N3CC4(C)CN2CC(C)(C3)C4=O)c2ccccc21 (stereo unspecified) | inactive: -9.12% |
| CCc1nnc(NC(=O)CSc2nccn2-c2ccc(OC)cc2)s1 | inactive: -8.33% |
| CSc1ccc(CCNC(=O)c2cnc3c(C)cccn3c2=O)cc1 | inactive: -35% |
| Cc1ccc(C)c(CN2C(=O)c3ccccc3S(=O)(=O)c3ccc(C(=O)N(C)C4CCCCC4)cc32)c1 | inactive: -12.2% |

| SMILES | activation |
| --- | --- |
| CC(=O)c1cc2c(cc1N/C(=N/S(=O)(=O)c1ccc(Cl)cc1)c1ccc(F)cc1)OCO2 | inactive: -10.4% |
| Cc1nc(C)c(-c2ccc(SCC(=O)Nc3ccc(Br)cc3)nn2)s1 | inactive: 0.546% |
| CC(=O)c1cccc(-n2c(=O)c3c4c(sc3n(CC(=O)c3ccccc3)c2=O)CN(C(C)=O)CC4)c1 | inactive: -16.3% |
| CC1CCCN(CCCNC(=O)c2ccc3c(c2)N(Cc2ccccc2F)C(=O)c2ccccc2S3(=O)=O)C1 (stereo unspecified) | inactive: 0.757% |
| COc1cc(C(=O)Oc2c(Sc3ccccc3)c(C)nn2-c2ccccc2)cc(OC)c1OC | inactive: -17.7% |
| CCc1ccccc1NC(=O)Nc1c[nH]c(=O)[nH]c1=O | inactive: -7.72% |
| Cc1ccc(C)c(N2CCN(C(=O)c3ccc(NC(=O)c4nsc5ccccc45)cc3)CC2)c1 | inactive: -3.32% |
| Cc1ccc(CNC(=O)CCCCCn2c(=O)[nH]c3ccccc3c2=O)cc1 | inactive: -16.3% |
| Cc1nn(-c2ccccc2)c(OC(=O)C(C)C)c1Sc1ccc(Cl)cc1 | inactive: -14% |
| Cc1ccc(/C=C/c2onc(C)c2S(=O)(=O)N2CCC(C(=O)Nc3ccc(C)c(N(C)C)c3)CC2)cc1 | inactive: -11.3% |
| CCOc1ccc(N2CC(NC(=O)CCc3ccccc3)CC2=O)cc1 (stereo unspecified) | inactive: -3.8% |
| CC(C)(C)c1ccc(NC(=O)C2CCCN(c3cnccn3)C2)cc1 (stereo unspecified) | inactive: -8.94% |
| Cc1ccccc1-c1nc(CN2CCC(C(=O)NCc3ccccc3Cl)CC2)c(C)o1 | inactive: -7.9% |
| Cc1ccccc1OCCSc1nnc(-c2ccc([N+](=O)[O-])cc2)o1 | inactive: -6.81% |
| O=C(NCC(c1ccc2c(c1)OCO2)N1CCOCC1)C(=O)Nc1ccc(Cl)cc1 (stereo unspecified) | inactive: -9.4% |
| Oc1cccc(-c2nc(-c3cccs3)c(-c3cccs3)[nH]2)c1 | inactive: -9.65% |
| CC(=O)CC(c1ccccc1)c1c(O)c2ccccc2oc1=O (stereo unspecified) | inactive: -14.2% |
| CCCN(CCC)CCCNC(=O)c1sc2nc3n(c(=O)c2c1C)CCC3 | inactive: -13.1% |
| CCCCC(CC)CNC(=O)CC(C)OC(=O)CCC(=O)O (stereo unspecified) | inactive: -13.5% |
| CCC1CCCCN1CCCNC(=O)c1sc2nc(C)cc(C)c2c1-n1cccc1 (stereo unspecified) | inactive: 19.7% |
| COc1ccccc1NC(=O)c1cc2c(n(-c3ccc(C)cc3)c1=O)CC(C)(C)CC2=O | inactive: -9.78% |
| COc1ccc(CNC(=O)CSCc2ccc(C)cc2)c(OC)c1 | inactive: -13.1% |
| CCc1cc2c(cc3c(=O)n(CC(=O)NC(C)C)nc(CC)n32)s1 | inactive: -7.4% |
| O=C(c1ccc2c(c1)N(Cc1cccc(Cl)c1)C(=O)c1ccccc1S2(=O)=O)N1CCN(Cc2ccccc2)CC1 | inactive: -21.5% |

| SMILES | activation |
| --- | --- |
| COc1ccc(CNC(=O)C2=Cc3cccc(OC)c3OC2)cc1OC | inactive: -3.1% |
| O=C(Nc1ccc(F)cc1F)c1cc(CN2CCOCC2)on1 | inactive: -9.74% |
| COc1ccc(OC)c(NS(=O)(=O)c2ccc3c(c2)CCCN3C(=O)C2CCC2)c1 | inactive: 3.69% |
| NS(=O)(=O)c1cc2c(cc1Cl)NC(C1CC3C=CC1C3)NS2(=O)=O (stereo unspecified) | inactive: -16.2% |
| COc1ccc(CNC(=O)Cn2c(=O)n3nc(-c4cccc(F)c4)nc3c3ccccc32)cc1OC | inactive: -17.1% |
| O=C1NS(=O)(=O)c2ccccc21 | inactive: -8.37% |
| CCc1ccc(NC(=O)c2ccc(F)c(S(=O)(=O)N3CCc4ccccc4C3)c2)cc1 | inactive: -13.3% |
| Cc1cccc(NC(=O)C(Cc2ccccc2)N2Cc3ccccc3C2=O)c1C (stereo unspecified) | inactive: -8.68% |
| CCc1nn(CC(=O)NCCN(CC(C)C)CC(C)C)c(=O)c2cc3sc(C)cc3n12 | inactive: -9.29% |
| COc1cccc(C(c2sc3nc(-c4ccco4)nn3c2O)N2CCC3(CC2)OCCO3)c1 (stereo unspecified) | inactive: 2.05% |
| CCc1ccc(CNC(=O)c2ccc(-n3c(C)cc4c3CCC(C)C4)cc2)cc1 (stereo unspecified) | inactive: -23.2% |
| COc1cc(Br)c(C2CC(=O)Nc3cc4c(cc32)OCCO4)cc1OC (stereo unspecified) | inactive: 17.5% |
| Cc1ccc(S(=O)(=O)Nc2ccc3c(c2)CCCN3C(=O)c2cccs2)cc1C | inactive: -22.9% |
| Oc1ccccc1-c1nc2ccc(Cl)cn2c1Nc1ccc2c(c1)OCCO2 | inactive: -29.5% |
| O=C(Nc1c(C(=O)N2CCN(c3ccccc3F)CC2)oc2ccccc12)c1ccc(Br)o1 | inactive: -20.3% |
| COc1ccc(-c2ccc(=O)n(CC(=O)Nc3ccccc3C(F)(F)F)n2)cc1 | inactive: -9.86% |
| CCS(=O)(=O)N1CCc2cc(C(=O)Nc3cccc(NC(C)=O)c3)ccc21 | inactive: -2.51% |
| COc1ccc(-c2nc(CSc3nnc(C)n4c3cc3sccc34)c(C)o2)cc1 | inactive: -0.976% |
| Cc1ccc(C2c3[nH]c4ccccc4c3CCN2C(=O)CSc2ccccc2)cc1 (stereo unspecified) | inactive: -41.5% |
| CSc1cccc(NC(=O)C2CCCN(S(=O)(=O)c3ccc4c(c3)CCCN4C(C)=O)C2)c1 (stereo unspecified) | inactive: -14% |
| Cn1c(=O)oc2cc(S(=O)(=O)N3CCCC(C(=O)N4CCN(c5ccc(F)cc5)CC4)C3)ccc21 (stereo unspecified) | inactive: -5.66% |
| CCc1nn2c(=O)cc(COC(=O)c3ccccc3NC(=O)c3ccc(C(C)(C)C)cc3)nc2s1 | inactive: -17.9% |
| Cc1ccccc1OCC(=O)Nc1nnc(S(=O)(=O)N2CCCCCC2)s1 | inactive: -22.2% |
| CC(Oc1ccc(Br)cc1)C(=O)N(Cc1nc(-c2ccccc2)no1)C(C)C (stereo unspecified) | inactive: 6.07% |

| SMILES | activation |
| --- | --- |
| O=C(NCCCN1CCN(c2ccccc2)CC1)c1ccc2nc(CCc3ccccc3)oc2c1 | inactive: -10.6% |
| CN(C)CCCOC1(Cc2ccccc2)CCCCCC1 | inactive: -10.3% |
| Cc1ccc(-n2c(-c3cccc(C)c3)nc3c(cnn3-c3ccccc3)c2=O)cc1 | inactive: -15.1% |
| COc1ccc(Cl)cc1NC(=O)NCc1noc2ccccc12 | inactive: -13.8% |
| COc1ccc(CCNC(=O)CCCn2c(=O)c3ccccc3n(CC(=O)Nc3ccc(C)cc3Cl)c2=O)cc1OC | inactive: 0.702% |
| Cc1nn2c(=O)cc(COC(=O)C(c3ccccc3)c3ccccc3)nc2s1 | inactive: -7.88% |
| COc1ccc(CNC(=O)c2cc3c(=O)[nH]c4ccccc4c3n2C)c(OC)c1 | inactive: -17% |
| Cc1ccc2c(c1)N(C(=O)N1CCC(C(=O)NCc3cccs3)CC1)CC(C)O2 (stereo unspecified) | inactive: -12.6% |
| Cc1ccc(-c2c(C(=O)N(C)Cc3ccccc3)oc(=O)c3ccccc23)cc1 | inactive: 0.914% |
| Cc1cccc(N(CC(=O)NCCSc2ccc(Cl)cc2)S(C)(=O)=O)c1C | inactive: -7.9% |
| Cc1cccc(-c2nc(C)c(CCNC(=O)c3cccs3)s2)c1 | inactive: 3.56% |
| O=C(NCC(c1cccnc1)N1CCc2ccccc2C1)C(=O)Nc1ccc(F)cc1F (stereo unspecified) | inactive: -20.2% |
| O=C(CN1CCCN(Cc2cccc(F)c2)S1(=O)=O)Nc1ccc2c(c1)OCCO2 | inactive: -6.09% |
| COC(=O)c1nnn(-c2ccc(Cl)cc2)c1C(=O)OC | inactive: -14.8% |
| O=C(CCS(=O)(=O)c1nc(-c2ccc3c(c2)OCO3)cc(C(F)(F)F)n1)Nc1ccc(F)cc1F | inactive: -24% |
| CCS(=O)(=O)c1ncc(Cl)c(C(=O)Nc2c(C(=O)c3ccc(C)cc3)oc3ccccc23)n1 | inactive: -8.68% |
| Cc1ccc(-n2ncc(C(=O)N3CCN(C(=O)c4ccco4)CC3)c2C2CCN(C(=O)OC(C)(C)C)CC2)cc1 | inactive: -16.6% |
| CC(C)c1ccc(NC(=O)CCNS(=O)(=O)c2ccc3c(c2)oc(=O)n3C)cc1 | inactive: -13.8% |
| Cc1ccc(NC(=O)C2CCN(C(=O)c3cnn(-c4ccccc4)c3-n3cccc3)CC2)cc1C | inactive: -12.2% |
| Cc1cccc(CCNC(=O)c2nn(C)c3c2CSc2ccccc2-3)c1 | inactive: 1.15% |
| O=C(c1ccc2c(c1)N(Cc1cccc(Cl)c1)C(=O)c1ccccc1S2(=O)=O)N1CCCCCC1 | inactive: -16.4% |
| COc1cccc(-c2cn3c(n2)sc2cc(C(=O)NCCC4=CCCCC4)ccc23)c1 | inactive: -17% |
| O=C(CSc1oc(-c2ccc(F)cc2)nc1S(=O)(=O)c1ccc(Cl)cc1)c1ccccc1 | inactive: -29% |
| COc1ccc(-c2cc(C(F)(F)F)n3nc(C(=O)Nc4sc5c(c4C(=O)OC(C)C)CCCC5)cc3n2)cc1OC | inactive: -20.6% |

Reference: PubChem BioAssay AID1159614 (National Center for Advancing Translational Sciences (NCATS), 2016)
